# In patent US20150266977A1 (AbbVie / Abbott, published 2015):
# T1: recombinant human sclerostin (human, UniProt Q9BQB4 24-213)
# T1 construct: biotinylated in the ELISAs; also called hu sclerostin; hu scl
# T1 sequence: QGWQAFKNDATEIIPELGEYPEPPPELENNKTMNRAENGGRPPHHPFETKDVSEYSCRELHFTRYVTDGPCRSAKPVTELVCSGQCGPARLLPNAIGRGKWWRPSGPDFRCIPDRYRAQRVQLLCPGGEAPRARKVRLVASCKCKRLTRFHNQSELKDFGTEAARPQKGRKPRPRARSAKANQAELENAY
# B1: DVD2630 (bispecific antibody, human IgG1, kappa, lambda)
# heavy: EVQLVESGGGLVQPGGSLRLSCAASGFTFSNYGVTWVRQAPGKGLEWVSMIWADGSTHYASSVKGRFTISRDNSKNTLYLQMNSLRAEDTAVYYCAREWQHGPVAYWGQGTLVTVSSASTKGPEVQLVESGGGLVQPGRSLRLSCAASGFTFDDYALHWVRQAPGKGLEWVSGIGWDEDMIDYADSVKGRFTISRDNAKNSLYLQMNSLRVEDTALYYCAGNNRGYGGLDVWGQGTTVTVSSASTKGPSVFPLAPSSKSTSGGTAALGCLVKDYFPEPVTVSWNSGALTSGVHTFPAVLQSSGLYSLSSVVTVPSSSLGTQTYICNVNHKPSNTKVDKKV[left out - human IgG1 Fc with changes]
# light: DIQMTQSPSSLSASVGDRVTITCRASQLVSSAVAWYQQKPGKAPKLLIYWASARHTGVPSRFSGSGSGTDFTLTISSLQPEDFATYYCQQHYKTPFTFGQGTKLEIKRTVAAPSVFIFPPQSVLTQPPSASGTPGQRVTISCSGSWSNIGSNTVNWYQQLPGTAPKLLIYNNNQRPSGVPDRFSGSKSGTSASLAISGLQSEDEADYYCAAWDDSLSGEYVFGGGTKLTVLGQPKAAPSVTLFPPSSEELQANKATLVCLISDFYPGAVTVAWKADSSPVKAGVETTTPSKQSNNKYAASSYLSLTPEQWKSHRSYSCQVTHEGSTVEKTVAPTECS
# notes: DVD-Ig: outer AB436, inner MSL10-AM3.2
# B2: DVD2627 (bispecific antibody, human IgG1, lambda)
# heavy: EVQLVESGGGLVQPGGSLRLSCAASGFTFSNYGVTWVRQAPGKGLEWVSMIWADGSTHYASSVKGRFTISRDNSKNTLYLQMNSLRAEDTAVYYCAREWQHGPVAYWGQGTLVTVSSGGGGSGGGGSEVQLVESGGGLVQPGRSLRLSCAASGFTFDDYALHWVRQAPGKGLEWVSGIGWDEDMIDYADSVKGRFTISRDNAKNSLYLQMNSLRVEDTALYYCAGNNRGYGGLDVWGQGTTVTVSSASTKGPSVFPLAPSSKSTSGGTAALGCLVKDYFPEPVTVSWNSGALTSGVHTFPAVLQSSGLYSLSSVVTVPSSSLGTQTYICNVNHKPSNTKVDKKV[left out - human IgG1 Fc with changes]
# light: DIQMTQSPSSLSASVGDRVTITCRASQLVSSAVAWYQQKPGKAPKLLIYWASARHTGVPSRFSGSGSGTDFTLTISSLQPEDFATYYCQQHYKTPFTFGQGTKLEIKRGGSGGGGSGQSVLTQPPSASGTPGQRVTISCSGSWSNIGSNTVNWYQQLPGTAPKLLIYNNNQRPSGVPDRFSGSKSGTSASLAISGLQSEDEADYYCAAWDDSLSGEYVFGGGTKLTVLGQPKAAPSVTLFPPSSEELQANKATLVCLISDFYPGAVTVAWKADSSPVKAGVETTTPSKQSNNKYAASSYLSLTPEQWKSHRSYSCQVTHEGSTVEKTVAPTECS
# notes: as for B1
# B3: DVD2623 (bispecific antibody, human IgG1, lambda)
# heavy: EVQLVESGGGLVQPGGSLRLSCAASGFTFSNYGVTWVRQAPGKGLEWVSMIWADGSTHYASSVKGRFTISRDNSKNTLYLQMNSLRAEDTAVYYCAREWQHGPVAYWGQGTLVTVSSASTKGPEVQLVESGGGLVQPGRSLRLSCAASGFTFDDYALHWVRQAPGKGLEWVSGIGWEDDMIDYADSVKGRFTISRDNAKNSLYLQMNSLRVEDTALYYCAGNSRGYGGLDVWGQGTTVTVSSASTKGPSVFPLAPSSKSTSGGTAALGCLVKDYFPEPVTVSWNSGALTSGVHTFPAVLQSSGLYSLSSVVTVPSSSLGTQTYICNVNHKPSNTKVDKKV[left out - human IgG1 Fc with changes]
# light: DIQMTQSPSSLSASVGDRVTITCRASQLVSSAVAWYQQKPGKAPKLLIYWASARHTGVPSRFSGSGSGTDFTLTISSLQPEDFATYYCQQHYKTPFTFGQGTKLEIKRTVAAPQSVLTQPPSASGTPGQRVTISCSGSSSNIGGNTVNWYQQLPGTAPKLLIYSNNQRPSGVPDRFSGSKSGTSASLAISGLQSEDEADYYCAAWDDSLEGSYVFGGGTKLTVLGQPKAAPSVTLFPPSSEELQANKATLVCLISDFYPGAVTVAWKADSSPVKAGVETTTPSKQSNNKYAASSYLSLTPEQWKSHRSYSCQVTHEGSTVEKTVAPTECS
# notes: DVD-Ig: outer AB436, inner MSL10-AM2.2
# Biological target: T1, recombinant human sclerostin
# Experiment: SPR
# Procedure: (§1) The binding of antibodies or anti-sclerostin-TNF DVD to purified recombinant human, cynomolgus monkey (cyno), rat and mouse sclerostin and TNFα was determined by surface plasmon resonance-based measurements with a Biacore T100 or T200 instruments (GE Healthcare Life Sciences, Piscataway, N.J., USA) using running HBS-EP+ (10 mM HEPES [pH 7.4], 150 mM NaCl, 3 mM EDTA, and 0.005% surfactant P20) containing additional 150 mM NaCl, and/or 10 mg/ml carboxymethyl dextran, 0.1 mg/ml BSA at 25° C. All chemicals were obtained from GE Healthcare Life Sciences, Piscataway, N.J., USA or otherwise from a different source as described in the text. Approximately 10,000 RU (or 3000 RU when CM3 chip was used) of goat anti-mouse or anti-human IgG (Fcγ) fragment specific polyclonal antibody (Pierce Biotechnology Inc, Rockford, Ill.) diluted in 10 mM sodium acetate (pH 4.5) was directly immobilized across a CM5 (or CM3) research grade biosensor chip using a standard amine coupling kit according to manufacturer's instructions and procedures at 15 μg/ml. Unreacted moieties on the biosensor surface were blocked with ethanolamine. Modified carboxymethyl dextran surface in flowcells 2, 3 and 4 were used as a reaction surface. Modified carboxymethyl dextran in flow cell 1 was used as the reference surface. Biaevaluation T100 software version 2.0.2, GE Healthcare Life Sciences was used to simultaneously fit association and dissociation phases of all injections (using 1:1 fit analysis with local Rmax). Purified antibodies were diluted in running buffer for capture across goat anti-mouse or anti-human IgG specific reaction surfaces. Antibodies to be captured as a ligand (1 μg/ml) were injected over reaction matrices at a flow rate of 10 μl/minute. The association and dissociation rate constants, kon (unit M-1 s-1) and koff (unit s-1) were determined under a continuous flow rate of 50 μl/minute. […] At the end of each cycle the surfaces were regenerated with 10 s injection of 50 mM NaOH or/and by 10 s injection of 10 mM Glycine pH1.5 at a flow rate of 100 μl/min.
Binder,Kd [nM],koff [s⁻¹],kon [M⁻¹ s⁻¹]
B1,1.3,4.8e-05,37000
B2,0.96,4.3e-05,45000
B3,< 0.013,< 1e-06,75000

# Biological target: T2, recombinant cynomolgus monkey sclerostin (cynomolgus monkey)
# T2 construct: also called cyno sclerostin; Cyno sclerostin
# Experiment: SPR
# Procedure: as §1
Binder,Kd [nM],koff [s⁻¹],kon [M⁻¹ s⁻¹]
B1,0.25,1.2e-05,46000
B2,2.6,0.00014,54000
B3,< 0.01,< 1e-06,99000

# Biological target: Rhesus/cynoTNFa (Rhesus/cyno)
# Experiment: cell-based or functional assay
row,Binder,L929 TNF neutralization IC50 [nM]
1,B1,0.006
2,B2,0.009
3,B3,0.0285
